In PubChem BioAssay AID485360 (National Center for Advancing Translational Sciences (NCATS), 2010):
The campaign covered roughly 230,000 compounds. About 1,500 (0.65%) were called active. The inconclusive results got no clear call from the source; some entries with a clear call stand among them for comparison. The call rests on the fitted dose curve; in most records, active means well fitted inhibition curve with a large enough effect; inconclusive means small, poorly fitted or top-dose-only effect; inactive means no such curve, though single readings can be large or run the other way. Potencies beside an inconclusive call are fits to weak or partial responses and may not hold up.

Biological target: Lethal(3)malignant brain tumor-like protein 1 (Homo sapiens) (UniProt Q9Y468)
Experiment: qHTS Assay for the Inhibitors of L3MBTL1; further: nearly all actives have a fitted effect of over 60% in size
Conditions: AlphaScreen L3MBTL1–H3K9me1 peptide binding; activity, negative = inhibition: at 57.1 µM (top of the series)
Procedure, shortened: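 AlphaScreen assay: L3MBTL1 (50 nM final) was preincubated 30 min at room temperature with biotinylated H3(1-15)K9me1 peptide (75 nM final), then 30 min with library compounds; streptavidin donor and nickel chelate acceptor beads (10 ug/mL final) added, 30 min dark.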
On the % scale 0 is the no-effect control and ±100 the full control effect; potency means the concentration at half of the fitted maximal effect; tags describe the fitted curve by direction and shape.

Sequence of UniProt Q9Y468 (Q9Y468 whole entry, looked up): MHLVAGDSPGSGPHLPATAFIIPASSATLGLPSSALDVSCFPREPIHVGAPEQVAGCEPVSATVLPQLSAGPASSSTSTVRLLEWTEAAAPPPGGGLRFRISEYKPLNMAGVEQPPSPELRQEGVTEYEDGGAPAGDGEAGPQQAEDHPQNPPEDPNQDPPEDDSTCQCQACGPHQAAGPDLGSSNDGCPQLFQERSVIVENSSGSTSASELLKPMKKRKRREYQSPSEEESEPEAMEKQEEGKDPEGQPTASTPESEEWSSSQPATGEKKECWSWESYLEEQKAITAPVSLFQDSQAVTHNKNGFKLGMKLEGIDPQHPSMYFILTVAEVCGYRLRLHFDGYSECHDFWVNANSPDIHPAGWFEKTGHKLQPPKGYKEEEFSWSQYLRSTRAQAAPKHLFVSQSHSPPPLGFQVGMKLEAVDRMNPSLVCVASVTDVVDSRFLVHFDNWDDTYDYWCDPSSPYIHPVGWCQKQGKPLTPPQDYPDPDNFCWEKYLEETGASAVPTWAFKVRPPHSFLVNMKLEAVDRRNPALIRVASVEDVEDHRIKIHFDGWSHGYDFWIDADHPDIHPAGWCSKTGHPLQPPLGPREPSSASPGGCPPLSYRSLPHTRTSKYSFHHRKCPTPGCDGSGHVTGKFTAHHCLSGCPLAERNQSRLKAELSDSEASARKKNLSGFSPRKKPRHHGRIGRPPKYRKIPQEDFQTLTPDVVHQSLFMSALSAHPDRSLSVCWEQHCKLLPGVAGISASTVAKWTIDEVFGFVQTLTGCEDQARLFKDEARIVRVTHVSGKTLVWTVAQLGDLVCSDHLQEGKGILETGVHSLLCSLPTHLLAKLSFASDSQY

Which Potency does the source give for `O=C(NC(=S)NNC(=O)c1ccccc1O)c1cccnc1` here?
Its Potency is inconclusive: 0.708 µM [inhibitor, full curve].

With `O=C(Nc1ccc(Br)cc1)c1cccc(N2C(=O)C3C4CCC(C4)C3C2=O)c1` (stereo unspecified) as the molecule, how does the Potency read?
The Potency was inconclusive: 0.708 µM [inhibitor, single point].

With `CCC(=O)Nc1ccc(NC(=O)Cc2ccccc2)cn1` as the molecule, how does the Potency read?
The Potency was “inactive”.

With `COc1ccc([N+](=O)[O-])cc1NC(=O)C(C)NNC(=O)c1cccc([N+](=O)[O-])c1` (stereo unspecified) as the molecule, how does the Potency read?
Its Potency is “inactive”.

`Cc1cc(C)cc(C(=O)NC(CC(N)=O)c2ccc(N3CCN(C)CC3)c([N+](=O)[O-])c2)c1` (stereo unspecified) was tested. Which Potency did it give?
The Potency was “inactive”.

With `CC(C)(C)C(=O)Nc1nnc(-c2ccncc2)o1` as the molecule, how does the Potency read?
The Potency was inconclusive: 39.8 µM [inhibitor, single point].

How did the Potency turn out when `CN(C)CCCN=Cc1c(-c2ccccc2)[nH]n(-c2nc3ccccc3s2)c1=O` was run?
The Potency was “inactive”.

With `COc1ccc(-c2ccc(OC)cc2)cc1` as the molecule, how does the Potency read?
Its Potency is “inactive”.

How did the Potency turn out when `COC(=O)c1ccc(CC(=O)c2c(C)cc(O)cc2O)o1` was run?
Its Potency is inconclusive: 25.1 µM [inhibitor, single point].

Which Potency does the source give for `CN(C)CCCNC(=O)C[C@H]1C[C@H](C(=O)N2CCCCC2)[C@@]2(CCc3ccccc3)c3[nH]c4cc(-c5ccco5)ccc4c3CCN2C1=O` here?
The Potency was inconclusive: 31.6 µM [inhibitor, single point].

Which Potency does the source give for `CC1CCN(C2=C(NS(=O)(=O)c3ccccc3)C(=O)c3ccccc3C2=O)CC1` here?
The Potency was active: 11.2 µM.

Which Potency does the source give for `Cc1ccc(NCCC(=O)c2ccc(Cl)cc2)cc1C` here?
Its Potency is “inactive”.

Which Potency does the source give for `C#CCOCCOCCOCCNc1nc(N2CCN(C(=O)[C@H](CCC(=O)O)n3cc(C(N)Cc4ccc(O)cc4)nn3)CC2)nc(N2CCN(C(=O)[C@H](Cc3cc4ccccc4[nH]3)n3cc(C(N)[C@H](C)CC)nn3)CC2)n1` (stereo partly specified) here?
The Potency was inconclusive: 7.94 µM [inhibitor, partial curve].

Which Potency does the source give for `COc1cccc2c1NC(C(=O)O)C1CC=CC21` (stereo unspecified) here?
Its Potency is active: 1.26 µM.

`Brc1cccc(OCCCCn2cncn2)c1` was tested. Which Potency did it give?
Its Potency is “inactive”.

Which Potency does the source give for `O=C(COC(=O)CNC(=O)c1ccccc1F)Nc1ncc(Cl)cc1Cl` here?
The Potency was inconclusive: 31.6 µM [inhibitor, partial curve].

With `C(=N/n1c2ccccc2c2ccccc21)/c1ccco1` as the molecule, how does the Potency read?
Its Potency is inconclusive: 31.6 µM [inhibitor, single point].

With `Nn1c(-c2ccccc2Cl)nnc1-c1ccccc1Cl` as the molecule, how does the Potency read?
The Potency was “inactive”.

`O=C(NC1CCCCC1)c1ccc(-c2ccc(Cl)cc2)o1` was tested. Which Potency did it give?
The Potency was inconclusive: 0.708 µM [inhibitor, single point].

Which Potency does the source give for `CCn1c(Cc2ccc(OC)cc2)nnc1SCC(=O)Nc1cccc(C(=O)OC)c1` here?
The Potency was inconclusive: 3.98 µM [inhibitor, single point].

`Cc1cc(/C=C2\NC(=O)NC2=O)c(C)n1-c1cccnc1` was tested. Which Potency did it give?
The Potency was “inactive”.

How did the Potency turn out when `Clc1ccc2c(NNc3ccccc3Cl)ccnc2c1` was run?
Its Potency is inconclusive: 3.98 µM [inhibitor, full curve].

For `Cc1ccc2c(c1)c(C)cc(=O)n2CCC(=O)O`, which Potency is on record?
The Potency was inconclusive: 31.6 µM [inhibitor, single point].

With `COc1cc2c(cc1NC(=O)C(C)OC(=O)c1ccc(S(=O)(=O)Nc3ccccc3Cl)cc1)oc1ccccc12` (stereo unspecified) as the molecule, how does the Potency read?
The Potency was “inactive”.

How did the Potency turn out when `CCCCN(C(=O)c1cc2c(s1)CCC2)c1c(N)n(CCC)c(=O)[nH]c1=O` was run?
Its Potency is inconclusive: 39.8 µM [inhibitor, single point].

With `CCCCC/C=C\C/C=C\C/C=C\CCCCC(=O)O` as the molecule, how does the Potency read?
Its Potency is inconclusive: 35.5 µM [inhibitor, single point].

How did the Potency turn out when `COc1ccc(N2Cc3cccc(C(=O)NC(C)CCc4ccco4)c3C2=O)cc1` (stereo unspecified) was run?
The Potency was active: 14.1 µM.

With `CCCCCn1c(=N)n(CC(O)COc2ccccc2OC)c2ccccc21` (stereo unspecified) as the molecule, how does the Potency read?
The Potency was active: 5.01 µM.

For `N#Cc1nc(COc2ccc(Br)cc2)oc1NCCCn1ccnc1`, which Potency is on record?
Its Potency is inconclusive: 39.8 µM [inhibitor, single point].

With `CCc1nc(Nc2ccc3c(c2)OCO3)c2oc3ccccc3c2n1` as the molecule, how does the Potency read?
Its Potency is “inactive”.

Which Potency does the source give for `NC(=O)C1CCN(c2nc(-c3ccccc3C(F)(F)F)cs2)CC1` here?
Its Potency is inconclusive: 25.1 µM [inhibitor, single point].

With `Cc1ccc2oc(=O)c3cc(C(=O)NCCN4CCN(C)CC4)sc3c2c1` as the molecule, how does the Potency read?
The Potency was active: 35.5 µM.

For `Cc1c(C(=O)Nc2ccc(-n3cnnn3)cc2)oc2ccccc12`, which Potency is on record?
Its Potency is inconclusive: 39.8 µM [inhibitor, single point].

How did the Potency turn out when `COc1ccc(C(C)=O)cc1COc1ccc([N+](=O)[O-])c(C)c1` was run?
Its Potency is inconclusive: 6.31 µM [inhibitor, single point].

With `CCCCCC1CCC(C(=O)O)CC1` (stereo unspecified) as the molecule, how does the Potency read?
The Potency was “inactive”.

How did the Potency turn out when `O=C1O[C@H]([C@@H](O)CO)C(O)=C1O` was run?
The Potency was inconclusive: 0.631 µM [inhibitor, partial curve, poor fit].

With `C[C@H](CO)N1C[C@H](C)[C@@H](CN(C)S(=O)(=O)c2ccccc2)Oc2ccc(NC(=O)CCC(F)(F)F)cc2C1=O` as the molecule, how does the Potency read?
Its Potency is “inactive”.

Which Potency does the source give for `O=c1[nH]c(CSc2nnc(COc3ccccc3)n2-c2ccccc2)nc2ccccc12` here?
Its Potency is inconclusive: 5.62 µM [inhibitor, single point].

For `C=CCOc1cccc(C2C(C(=O)c3ccc(C)o3)=C(O)C(=O)N2CCN(C)C)c1` (stereo unspecified), which Potency is on record?
Its Potency is “inactive”.

With `COC(=O)C1CCN(C(=O)c2cc(-c3ccco3)nc3ccccc23)CC1` as the molecule, how does the Potency read?
The Potency was active: 0.794 µM.

Which Potency does the source give for `Cc1ccccc1CS(=O)(=O)CCC(=O)NCCCN1CCOCC1` here?
Its Potency is inconclusive: 39.8 µM [inhibitor, single point].

How did the activity, negative = inhibition turn out when `O=[N+]([O-])c1ccc(O)c2ncccc12` was run?
Its activity, negative = inhibition is inconclusive: -96.4% [inhibitor].

For `O=C(Cc1nn[nH]n1)NCc1ccccc1Cl`, which Potency is on record?
Its Potency is inconclusive: 22.4 µM [inhibitor, single point].

Which Potency does the source give for `NC(=O)Nc1ccc(Nc2ccccc2)cc1` here?
Its Potency is “inactive”.

How did the Potency turn out when `C#CCOCCOCCOCCNc1nc(N2CCN(C(=O)C([C@@H](C)CC)n3cc(C(N)CC(C)C)nn3)CC2)nc(N2CCN(C(=O)[C@H](CCC(=O)O)n3cc(C(N)Cc4ccc(O)cc4)nn3)CC2)n1` (stereo partly specified) was run?
Its Potency is “inactive”.

For `CCOc1ccc(C(=O)NCCCCNC(=O)c2ccc(OCC)cc2)cc1`, which Potency is on record?
Its Potency is “inactive”.

Which Potency does the source give for `CCSc1nc(=S)cc(C)[nH]1` here?
The Potency was “inactive”.

`COc1cc(NC(=O)c2cnn3c(C)cc(C)nc23)c(OC)cc1Cl` was tested. Which Potency did it give?
The Potency was inconclusive: 6.31 µM [inhibitor, single point].

For `CCC(=O)NC(c1cccc([N+](=O)[O-])c1)c1c(O)ccc2ccccc12` (stereo unspecified), which Potency is on record?
The Potency was inconclusive: 10 µM [inhibitor, partial curve].

`Cc1ccc(C)c(SCC(=O)OCC(=O)c2ccco2)c1` was tested. Which Potency did it give?
Its Potency is inconclusive: 35.5 µM [inhibitor, single point].

For `COc1ccc(-c2nc3ccc(C)cn3c2NCc2ccc3c(c2)OCO3)cc1`, which Potency is on record?
Its Potency is inconclusive: 4.47 µM [inhibitor, full curve].

For `Cc1ccccc1N1Cc2ccccc2C1`, which Potency is on record?
The Potency was “inactive”.

`COc1cccc(NC(=O)N2CCCc3ccccc32)c1` was tested. Which Potency did it give?
The Potency was inconclusive: 39.8 µM [inhibitor, single point].

With `COc1ccc(/C=C(\NC(=O)c2cccs2)C(=O)Nc2cccc3ccccc23)cc1OC` as the molecule, how does the Potency read?
Its Potency is inconclusive: 3.98 µM [inhibitor, single point].

For `Cc1ccc(CCC(=O)Nc2ccccc2F)s1`, which Potency is on record?
Its Potency is inconclusive: 39.8 µM [inhibitor, single point].

Which Potency does the source give for `Cc1ccc(OCCCCN2CCCCC2)c(Br)c1` here?
The Potency was inconclusive: 0.708 µM [inhibitor, single point].

Which Potency does the source give for `O=[N+]([O-])c1cc(C2Nc3cccc4cccc(c34)N2)ccc1Cl` here?
The Potency was inconclusive: 22.4 µM [inhibitor, single point].

Which Potency does the source give for `Cc1ccc(N(Cc2ccco2)C(=O)c2ccc(N3CCCCC3)c([N+](=O)[O-])c2)cc1` here?
The Potency was inconclusive: 39.8 µM [inhibitor, single point].

For `COC(=O)c1ccc(NC(=S)NCCCn2ccnc2)cc1`, which Potency is on record?
The Potency was “inactive”.

For `Cc1csc(CNc2ncnc3ccc(-c4ccoc4)cc23)c1`, which Potency is on record?
Its Potency is “inactive”.

How did the Potency turn out when `OCC[C@@H]1C[C@@H](O)[C@H](O)[C@]2(CCc3ccccc3CO2)O1` was run?
The Potency was inconclusive: 0.708 µM [inhibitor, single point].

Which Potency does the source give for `CC(C)(C)c1c(Cl)c(O)c(-c2ccccc2)c(=O)n1-c1ccccc1` here?
The Potency was active: 31.6 µM.

With `Cc1nccn1CC(=O)c1ccc(O)c(O)c1` as the molecule, how does the Potency read?
The Potency was “inactive”.

Which Potency does the source give for `Cn1cccc1/C=N/NC(=O)c1sc2ccccc2c1Cl` here?
The Potency was inconclusive: 25.1 µM [inhibitor, partial curve].

How did the Potency turn out when `Cc1cc(NC(=O)CSc2nnc(-c3ccncc3)n2N)ccc1Br` was run?
The Potency was “inactive”.

Which Potency does the source give for `CCCN1CCCc2cc(CN)ccc21` here?
Its Potency is inconclusive: 17.8 µM [inhibitor, partial curve].

For `O=C(/C=C/c1cccc([N+](=O)[O-])c1)NCCc1ccc(F)cc1`, which Potency is on record?
Its Potency is inconclusive: 0.708 µM [inhibitor, single point].

How did the Potency turn out when `CC(=O)[C@@H]1[C@@H](C(=O)c2ccccc2)[C@]2(C(=O)Nc3ccccc32)[C@H]2C=Cc3cc(F)ccc3N12` was run?
The Potency was “inactive”.

`C=CCOc1ccc(CNc2nccs2)cc1OC` was tested. Which Potency did it give?
The Potency was inconclusive: 11.2 µM [inhibitor, partial curve].

Which Potency does the source give for `O=C1CCN(C(=O)Nc2ccccc2Cl)N1` here?
Its Potency is “inactive”.

How did the Potency turn out when `O=C(Nc1ccc(Cl)cc1C(F)(F)F)C(Sc1cccc[n+]1[O-])c1ccccc1` (stereo unspecified) was run?
The Potency was “inactive”.

With `Cc1cccc2nc(CSC(=N)N)c(Br)n12` as the molecule, how does the Potency read?
Its Potency is “inactive”.

Which Potency does the source give for `O=C(Cc1cccs1)Nc1ccc(S(=O)(=O)N2CCCCC2)cc1` here?
The Potency was active: 22.4 µM.

With `CCOc1cc(CNCc2cccs2)ccc1OCC(=O)NC(C)(C)C` as the molecule, how does the Potency read?
Its Potency is inconclusive: 6.31 µM [inhibitor, single point].

How did the Potency turn out when `COCc1cc(C)nc(OCC(=O)N/N=C/c2cccc(OC)c2)c1C#N` was run?
Its Potency is “inactive”.

With `COc1ccc(C(=O)NNC(=O)CN2CCC(n3nnc4cc(F)ccc43)CC2)cc1` as the molecule, how does the Potency read?
Its Potency is inconclusive: 39.8 µM [inhibitor, single point].
